Results: the RNAGym collection of RNA variant scans (doi:10.1093/nar/gkz1192)
The source gives no read counts; variants with many changes may rest on few reads.

B1: CPEB3 Ribozyme (parent)
chain: UAACAGGGGGCCACAGCAGAAGCGUUCACGUCGCAGCCCCUGUCAGAUUCUGGUGAAUCUGCGAAUUCUGCUGUAUAUCUC

Variants of: B1
Experiment: self-cleavage, relative activity (ratio to wild type); higher = more cleavage; in vitro, sequencing
Method in brief: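 Relative activity compares each variant's cleaved/total read fraction with that of the unmutated ribozyme. To get these fractions, barcoded CPEB3 ribozyme libraries from rounds of error-prone PCR were transcribed with T7 RNA polymerase for 5 hours at 37°C and then given 15 min of DNase I treatment before EDTA was added. The RNAs were reverse transcribed with template switching and sequenced on Illumina, and DNA sequencing linked barcodes to variants. A minimum of 5 reads applied, and three batches were averaged.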

Row | Variant | self-cleavage
1 | UAACAGGGGGCCACAGCAGAGGCGUUCACGCCGCAGCCCCUGUCUGAUUCUGGUGAAUAAGCGAAUUCUGCUGUAUAUCUC [A21G U31C A45U C59A U60A] | 0.13
2 | UAACAGGGGGCCACAGCAGAGGCGUCCACGUCGCAGCCCCAGUCAGAUUCUGGUGAAUCUGCGAAUUCUGCUGUAUAUCUC [A21G U26C U41A] | 0.34
3 | UAACAGGGGGCCACAGCAGAGGCGUUCACGACGCAGCCCCUGUCAGUUUCUGGUGAAUCUGCGAAUUCUGCUGUAUAUCUC [A21G U31A A47U] | 0.15
4 | UAACAGGGGGCCACAGCAGAGGCGUUCACGACGCAGCCCCUGUCAGACUCUGGUGAAUCUGCGAAAUCUGCUGUAUAUCAU [A21G U31A U48C U66A U80A C81U] | 0.09
5 | UAACAGGGGGCCACAGCAGAGGCGGUCACGUCGCAGCCCCUAUCAGAUUCUGGUGAAUCUGCGAAUUCUGCUGCAUAUCUC [A21G U25G G42A U74C] | 0.42
6 | UAACAGGGGGCCACAGCAGAGGCGUACACGUCGCAGCCCCUGACGGAUUCUGGUGAAUCUGCGAAUUCUGCUGUUUAUCUC [A21G U26A U43A A45G A75U] | 0.31
7 | UAACAGGGGGCCACAGCAGAGGCGUUCACGACGCAGCCCCCGUCAGAUUCUGGUGAAUCUGCGAAUUCUGCUGUAUAUCUC [A21G U31A U41C] | 0.33
8 | UAACAGGGGGCCACAGCAGAGGCGUUCACGACGCAGUCCCUGUCAGAUUCUGGUGAAUCUGCGAUUUCUGCUGUAUAUCUC [A21G U31A C37U A65U] | 0.18
9 | UAACAGGGGGCCACAGCAGAGGCGGUCACGUCGCAGCCCCCGUCAGAUUCUGGUGAAUCUGCGAAUUCAGCUGUAUAUCUC [A21G U25G U41C U69A] | 0.08
10 | UAACAGGGGGCCACAGCAGAGGCGUACACGUCGCGGCCCCCGUCGGAUUCUGGUGAAUCUGCGAAUUCUGCUGUAUAUCUC [A21G U26A A35G U41C A45G] | 0.34
11 | UAACAGGGGGCCACAGCAGAGGCGUACACGUCGGUGCCCCUGUCCGAUUCUGGUGAAUCUGCGAAUUCUGCUGUAUAUCAC [A21G U26A C34G A35U A45C U80A] | 0.04
12 | UAACAGGGGGCCACAGCAGAGGCGUUCACGCCGCAGCCCCUGUCAGGUUCUGGUGAAUCCGCGAAUUCUGCUGUAUAUCUC [A21G U31C A47G U60C] | 0.2
13 | UAACAGGGGGCCACAGCAGAGGCGUCCACGUCGCAGCCCCUGUCAGGUUCUGGUGAAUCUGCGAAUUCUGCUGUAUAUCUC [A21G U26C A47G] | 0.29
14 | UAACAGGGGGCCACAGCAGAGGCGUACACGUCGCAGCCCCUGUCUGAUUCUGGUGAAUCUGCGAAUACUGCUGUAUAUCUC [A21G U26A A45U U67A] | 0.35
15 | UAACAGGGGGCCACAGCAGAGGCGUACACGUCGCAGCCCCUGUCAGCUUCUGGCGAAUCUGCGAAUUCUGCUGUAUAUCUA [A21G U26A A47C U54C C81A] | 0.15
16 | UAACAGGGGGCCACAGCAGAGGCGGUCACGUCGCAGCCCCAGUCAGAUUCUGGUGAAUCUGCGAAUUCUGCUGGAUAUCUC [A21G U25G U41A U74G] | 0.35
17 | UAACAGGGGGCCACAGCAGAGGCGUCCCCGUCGCAGCCCCUGUCAGAUUCUGGUGAAACUGCAGAUUCUGCUGUAUAUCAC [A21G U26C A28C U58A G63A A64G U80A] | 0.02

Row | Variant | self-cleavage
18 | UAACAGGGGGCCACAGCAGAGGCGUCCACGUCGCAGCCCCUGUCAGAUACUGGUGAAUCUGCGAAUUCAGCUGUAUAUCUC [A21G U26C U49A U69A] | 0.04
19 | UAACAGGGGGCCACAGCAGAGGCGUCCACGUCGCAGCCCCUGUCAGAUUCCGGUGAAUCUGCGAAUUCCGCUGUAUAUCAC [A21G U26C U51C U69C U80A] | 0.07
20 | UAACAGGGGGCCACAGCAGAGGCGUACACGUCGCAGCCCCUGUCAGAUUCUGGUGAAUCCGCGAAUUCAGCUGUAUAUCCC [A21G U26A U60C U69A U80C] | 0.25
21 | UAACAGGGGGCCACAGCAGAGGCGUCCGCGUCGCAGCCCCUGUCGGAUUCUGGUGAAUCUGCGAAUUCUGCUGUAUAUCUC [A21G U26C A28G A45G] | 0.43
22 | UAACAGGGGGCCACAGCAGAGGCGUCCACGUCGUAGCCACUGUCAGAUUCUGGUGAAUGUGCGAAUUCUGCUGUAUAUCUC [A21G U26C C34U C39A C59G] | 0.05
23 | UAACAGGGGGCCACAGCAGAGGCGUCCACGUCGCAGCCCCUGUCAGACUCUGGUGAAUCUACGAAUUCUGCUGUAUAUCUC [A21G U26C U48C G61A] | 0.11
24 | UAACAGGGGGCCACAGCAGAGGCGUCCACGUCGCAGCCCCUGUCAGAUUCUGGUGAAUCUGCGUAUUCUGCGGUAUAUCUC [A21G U26C A64U U72G] | 0.07
25 | UAACAGGGGGCCACAGCAGAGGCGUACACGUAGCAGCCCCUGACAGAUUCUGGUGAAUCUGCGAGUUCUGCUGUAUAUCCC [A21G U26A C32A U43A A65G U80C] | 0.11
26 | UAACAGGGGGCCACAGCAGAGGCGUUCACGACGCAGCCCCCGUCAGAUUCUGGUGAAUCUGCGAAUUCUGCUGUUUAUCUC [A21G U31A U41C A75U] | 0.69
27 | UAACAGGGGGCCACAGCAGAGGCGCUCACGUCGCAGCCCCUGUCAGAUUCUGGUGAAUCUGCGAAUUCAACUGUAUAUCUC [A21G U25C U69A G70A] | 0.13
28 | UAACAGGGGGCCACAGCAGAGGCGUUCACGACGCAGCCCCCGUCAGAUCCCGGUGAAUAUGCGAAUUCUGCAGUAUAUCUC [A21G U31A U41C U49C U51C C59A U72A] | 0.04
29 | UAACAGGGGGCCACAGCAGAGGCGUUCACGCCGCGGCCCCCGUCAGAUUCUGGUGAAUCUGCGGAUUCUGCUGUAUAUCUC [A21G U31C A35G U41C A64G] | 0.33
30 | UAACAGGGGGCCACAGCAGAGGCGUUCACGCCGCAGCCCCUGUCGGAUUCUGGUGAAUCUGCGAAUUCUGCUGUAUGUCUC [A21G U31C A45G A77G] | 0.06
31 | UAACAGGGGGCCACAGCAGAGGCGUACACGUCGCAGCCCCUGUCAGAUUCUGGUGAAUCUGCGAAUUCAGCUGUAUAUCUC [A21G U26A U69A] | 0.19
32 | UAACAGGGGGCCACAGCAGAGGCGUACACGUCGCAGCUCCUGUCAGAUUCUGGUGAAUCUGCGGAUUCUGCGGUAUAUCUC [A21G U26A C38U A64G U72G] | 0.18
33 | UAACAGGGGGCCACAGCAGAGGCGUUCACGCCGCAGCCCCUGUCAGAUUCUGGUGAUUCUGCGAAUUCUGCUGUAUAUCUC [A21G U31C A57U] | 0.17
34 | UAACAGGGGGCCACAGCAGAGGCGUCCACGUCGCAGCCCCUGUCAGAUUCUGGUGUAUCUGGGAAUUCUGCUGAAUAUCUC [A21G U26C A56U C62G U74A] | 0.1
